# Measurements published in paper PMC12136788.
# The other results are listed elsewhere or left out.
# T1: UNK ZnF1-3 (human, UniProt Q9C0B0 31-174)
# T1 sequence: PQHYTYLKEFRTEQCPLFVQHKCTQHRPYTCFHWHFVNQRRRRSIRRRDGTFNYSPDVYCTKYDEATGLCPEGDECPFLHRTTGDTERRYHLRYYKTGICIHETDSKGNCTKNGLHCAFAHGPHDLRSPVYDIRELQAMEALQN
# B1: 32174041_32184526_3110_CDS_ENSMUSG00000029765_ENSMUST00000115096|mouse|control|control (ssRNA)
# RNA: GGGAGUUCUACAGUCCGACGAUCUCCCGACUGAGGCUGUGGGAGGUUCUUAGCCUUCAGAGUGAUGGGCUUGAUCACCUCUACUGGAACGAGGAUCUUGUCCACUCGCAGCAGCUGGGGGCAGUCCUCAGGUAGCUUCACUCGCAACAGAGGAUUGAGCAUCA
# B2: chr8:35203877:35203878:-_ENSMUSG00000031513_ENSMUST00000033910|mus_mus|FALSE|FALSE (ssRNA)
# RNA: GGGAGUUCUACAGUCCGACGAUCGGAAGGGCACAUCCAAGCAUCAGGAACAUCAGCCCGAUCGCUCCUCCAAAGGACAAACUAAUUAAAGCUUUGAUGCCCGCCAUGGCGGUGACGUCGCUCCUGGCUCCACGACCCGGGCGGCAACAGAGGAUUGAGCAUCA
# B3: chr1:46159212:46159213:+_ENSG00000159596_ENST00000372025|hu_mus|hu_hu_hu_mus_True|68_108 (ssRNA)
# RNA: GGGAGUUCUACAGUCCGACGAUCUCUGAUCCCACCCAAGAAAGCUAGGAAACCGGCUCCAUAAGCCAUCUGAGUAAAAGCUAGGACGGGGAUAUAAGACUUUGUUAUUACCAUGAGAAGUGGGGGAGCAGUAAAGGGGAUUAACAACAGAGGAUUGAGCAUCA
# B4: chr10:122565287:122565288:-_ENSMUSG00000020124_ENSMUST00000020334|mus_hu|motif|central (ssRNA)
# RNA: GGGAGUUCUACAGUCCGACGAUCAAUUUUGGGGACAACCACUUUGUACUGCAUAGGUUUGGUAAGUGGAUCCAUUCGGACGGAGUAAACUUCCAAGGUGCGUUCUUUUUUCAUGGGCAAUGGAAGUGUCAAGUAACAAAAAGGCAACAGAGGAUUGAGCAUCA
# B5: chr16:20684184:20684185:+_ENSMUSG00000045983_ENSMUST00000044783|mus_mus|FALSE|FALSE (ssRNA)
# RNA: GGGAGUUCUACAGUCCGACGAUCUGGAGGGCCACCCCGACGUUUGUCGCUGCCCUUGGCCAUGAGCUGCUGUACUUUAAUAUGUUCUCGGUGCUCUUCCAUCUCAGCCUCCUUGUGAAUUUGAUCAAUAGUCUUAGGACCCUGCAACAGAGGAUUGAGCAUCA
# B6: chr1:10192443:10192444:+_ENSG00000130939_ENST00000377157|hu_mus|motif|central (ssRNA)
# RNA: GGGAGUUCUACAGUCCGACGAUCAAGGGCCGCCAUGUAGCUGAGAGCCGCUUCACGAGUUUCGCCAUUUAACAAAAUACGGUGUAGAAUCUUGAAAAGUUCUUGCCGUCCCAGCUCCAGGUAAUGCUGUAGUGACUGGCUGACCAACAGAGGAUUGAGCAUCA
# B7: chr1:114133195:114133196:+_ENSG00000081026_ENST00000369615|hu_mus|FALSE|FALSE (ssRNA)
# RNA: GGGAGUUCUACAGUCCGACGAUCCAUUUCCCAGUUUUUGGGCAGCGGUUCCAGAUUCUCAUCUCUCAUCAUAUAAUUUCUAAAGUCCAUGGAGCUAUUUGUUUGGUUAUAACUUGGAACAGUCUUCAUCCAGCAGUCAGAUGUCAACAGAGGAUUGAGCAUCA
# B8: chr2:152658766:152658767:-_ENSG00000162980_ENST00000295087|hu_mus|motif|central (ssRNA)
# RNA: GGGAGUUCUACAGUCCGACGAUCAUUCUUAAAUUCAUUUUAACUGUUUGUCAUGUAAUUUAAUACCUAAAAAGGUUGCAGCGGAAUUAAUUACUACUAUUUAUAGGAUGUUACCUCUUUGGGUAGAUAUAUUUCACACCAUGACAACAGAGGAUUGAGCAUCA
# B9: chr5:31258465:31258466:-_ENSMUSG00000045302_ENSMUST00000155946|mus_mus|FALSE|FALSE (ssRNA)
# RNA: GGGAGUUCUACAGUCCGACGAUCCCAUGGGCCUCCUUCACAUAAUACAGGCGCUGGGGGAGAAAGCAGUGAGGAAAGCCUAGUUGGAAGCUACCUUCGGGGAAACACGCUCCACAGUCCUAACAGGCUUCCCCUGUGGACUGGCAACAGAGGAUUGAGCAUCA
# B10: 90035977_90036097_484_CDS_ENSG00000070961_ENST00000261173|human|control|control (ssRNA)
# RNA: GGGAGUUCUACAGUCCGACGAUCUGAUACUAUGGCUGCAAUUUCUAAUAUAAUUAAAGUGACAUCUUGUAAUGCUUCCCAUACUAAUUGAAGAAAGGUUUUUGGCUUUUUAGGAGGUAUAAAAUUCUUUCCAAACACUGCUUCCAACAGAGGAUUGAGCAUCA
# B11: 144733308_144733428_1415_CDS_ENSG00000183309_ENST00000501748|human|control|control (ssRNA)
# RNA: GGGAGUUCUACAGUCCGACGAUCACUGCACACAUAGGGCUUUUCUCCAGUGUGAAUAAUCUGGUGCAGAAGCAGCUUGGAGCUCUGGAUGAAGGCUUUCCCACAGUCUUUACAUUCGAAGGGCCUGUCCCCAGAGUGGAUCUUCAACAGAGGAUUGAGCAUCA
# B12: 107454094_107460476_527_3pUTR_ENSMUSG00000020721_ENSMUST00000106746|mouse|control|control (ssRNA)
# RNA: GGGAGUUCUACAGUCCGACGAUCUACUCGUUGCUGUCUCUGUUUCUGUGAGAAGUGUCUUUAGUCUUGUCAAAUCUUUCGUUACCAUCCCAUUCAGAGACUCCCCUGACAGUGACUUGGCAAGGAUGGAGGACACAAGCUGGACAACAGAGGAUUGAGCAUCA
# B13: 54572153_54572273_469_CDS_ENSMUSG00000061559_ENSMUST00000051822|mouse|control|control (ssRNA)
# RNA: GGGAGUUCUACAGUCCGACGAUCUUUUCCUCUAGUGUCCAAAGAAUAUUCUUUUUUUCCACUUUCCACACCAAAAAUGUUCACUUUCCCCAUGUGAGUUCCUGUGGCCAGAUACUGGGAGUCAGGAGAAAAUGCCAAAGUCCACAACAGAGGAUUGAGCAUCA
# B14: chr9:110092072:110092073:+_ENSG00000119318_ENST00000416373|hu_mus|motif|central (ssRNA)
# RNA: GGGAGUUCUACAGUCCGACGAUCAACUGUAUGUAUCCCUGCCCUAUAUCCUAGCUCCCCACCCCCACCCCCACCAACCGGCGGCCGUAUACCAAAUAUUGUGGAUAUGAGCCCAAGUCACCCCAGACAAUCCAGUGAACAAGGCAACAGAGGAUUGAGCAUCA
# B15: 123892754_123893134_904_3pUTR_ENSMUSG00000038342_ENSMUST00000068237|mouse|control|control (ssRNA)
# RNA: GGGAGUUCUACAGUCCGACGAUCCAUGAGCAUGUCUGUGUCCAGCAGUGAGUCCUCCUCCAUGGGGACUGGGGUUUUCCAGCCAUCCCCAUGUUUAUGCCAAUACAGCAUGUCAUCGUCCUGGGCCAGGCUAGAAAGGUCCUCCAACAGAGGAUUGAGCAUCA
# B16: 10828398_10828887_507_CDS_ENSG00000110321_ENST00000339995|human|control|control (ssRNA)
# RNA: GGGAGUUCUACAGUCCGACGAUCUGCACCCCUACUUCCUCCUCCGCCCGAAGAAGCACUGAAACGAGAAGCACCCCCUUCUGCAAUCGCACUCUCCACUUUGGCGGCUUGACAACGAAGAAUCUUCAAAAGAAUAAUAUUAAUCAACAGAGGAUUGAGCAUCA
# B17: chr13:30086970:30086971:-_ENSG00000139514_ENST00000380752|hu_mus|FALSE|FALSE (ssRNA)
# RNA: GGGAGUUCUACAGUCCGACGAUCAGGCCCUGUGUAGGCUGGGGAAGUGUGCUACCACUAGGCUACACGCCUGUCCAGCCCCACUAACUCUUCCAUUCUCAAGAAUCUUCCAAAGCAGAGGAAAGACAGGGCCAUCAGUCUACCCAACAGAGGAUUGAGCAUCA
# B18: 42180882_42181002_497_3pUTR_ENSMUSG00000036295_ENSMUST00000043884|mouse|control|control (ssRNA)
# RNA: GGGAGUUCUACAGUCCGACGAUCUUGGAGUGGCGUGUCCUUCAUCUUAGCUUUUGUCUUCAGAAAGUUAACAGGCCCUUAAGGAUUCCAGUCACAGCCAGUAAGUUCAGUAGGAGCUGACUGAUGAGGGAAGUAUUUGCAUUUCAACAGAGGAUUGAGCAUCA
# B19: chr4:144460044:144460045:+_ENSG00000153147_ENST00000283131|hu_mus|hu_hu_hu_mus_False|58_68 (ssRNA)
# RNA: GGGAGUUCUACAGUCCGACGAUCACGGUCCAUAGCCUGAAGAUCAACUUGCGGAUUCCAAUCUGAGUCAUACAAAAUUACUACAUCAGCAGUUGCAAGAUUGAUGCCCAGACCACCAGCACGUGUGCUUAGCAUAAAUACAAACAACAGAGGAUUGAGCAUCA
# B20: 76392888_76393008_1816_CDS_ENSMUSG00000034098_ENSMUST00000038364|mouse|control|control (ssRNA)
# RNA: GGGAGUUCUACAGUCCGACGAUCGAGCUUCGGUGUAAUGUCAAUCCCAUUCUUCAGCCAGCCAAGCUGAGGGUCUGGAAUGCCCUCGGCAUGGCACCUAAGGCUUGCAGUUACACCAGGUUCUCUGGCCUGACUCUCUGGAUACAACAGAGGAUUGAGCAUCA
# B21: chr14:76904430:76904431:+_ENSMUSG00000022010_ENSMUST00000022587|mus_mus|mus_mus_mus_hu_True|8_58 (ssRNA)
# RNA: GGGAGUUCUACAGUCCGACGAUCUGCAGCCAAAAACACCCUCGUGGAAAAAAAGAGGGAACACCAGCAGCCUUGUACAAACUAGAUAAAAUCUUCUGGCUUUCCGCAGCCCAGGGAGAAACAGAAAUGGUGCUGGCUAAUUUACAACAGAGGAUUGAGCAUCA
# B22: chr1:46865451:46865452:-_ENSMUSG00000025986_ENSMUST00000027131|mus_hu|FALSE|FALSE (ssRNA)
# RNA: GGGAGUUCUACAGUCCGACGAUCGCAUGUGCUGCUCUCAAAGUUUUGUUUUUGUUUUGAAGUUCAUAGAGUAGGAGGAAAGAAGAGUACUAAAUGAAAACAUUUUAGAUGGAAUGGAAAAGAGUUUGGCUCUUAUAUAUUUGACAACAGAGGAUUGAGCAUCA
# Biological target: T1, UNK ZnF1-3
# Assay: nsRBNS (natural sequence RNA bind-n-seq); RBNS binding buffer (assumed for nsRBNS): 25 mM Tris pH 7.5, 150 mM KCl, 3 mM MgCl2, 0.01% Triton X-100, 500 ug/ml BSA, 20 U/ml SUPERase-In, 4 C; UNK is unkempt and MSI1 is Musashi-1; names of the RNAs are library labels; protein concentration not given here; high values mean tight binding
row,Binder,binding signal
1,B1,0.971 enrichment R
2,B2,1.71 enrichment R
3,B3,1.53 enrichment R
4,B4,1.22 enrichment R
5,B5,0.843 enrichment R
6,B6,1.54 enrichment R
7,B7,0.913 enrichment R
8,B8,0.744 enrichment R
9,B9,1.19 enrichment R
10,B10,1.38 enrichment R
11,B11,1.08 enrichment R
12,B12,0.812 enrichment R
13,B13,1.05 enrichment R
14,B14,1.6 enrichment R
15,B15,1.05 enrichment R
16,B16,2.14 enrichment R
17,B17,1.02 enrichment R
18,B18,1.13 enrichment R
19,B19,1.17 enrichment R
20,B20,0.258 enrichment R
21,B21,2.16 enrichment R
22,B22,1.57 enrichment R
